# Measured values reported in PubChem BioAssay (NCATS).
# The shares of active, inactive and inconclusive entries below differ from those in the screen. For part of these data: Where the call is inconclusive, the potency comes from a doubtful curve fit. Calls of active or inactive are those of the source. Unless noted, calls follow the shape of the dose curve; as a rule, active = well fitted curve in the direction sought with a large enough effect; inconclusive = small, poorly fitted or top-dose-only effect, or another doubt; inactive = no such curve, though single readings can be large; an effect the other way counts as inactive or inconclusive.
# What was measured:
# [1] = target: Glucocorticoid receptor (Homo sapiens) (UniProt P04150); test: GR-GFP Redistribution (AID 450;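 active = compounds whose dose series gives a full or clear partial fitted curve of increased nuclear translocation; inconclusive = weak partial curve or effect only at the top dose; inactive = no dose-dependent translocation response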; also: potency is read from the fitted curve at half-maximal effect); conditions: U2OS GR-GFP nuclear translocation, laser cytometry, 2 h
# UniProt P04150, sequence (P04150 whole entry, looked up): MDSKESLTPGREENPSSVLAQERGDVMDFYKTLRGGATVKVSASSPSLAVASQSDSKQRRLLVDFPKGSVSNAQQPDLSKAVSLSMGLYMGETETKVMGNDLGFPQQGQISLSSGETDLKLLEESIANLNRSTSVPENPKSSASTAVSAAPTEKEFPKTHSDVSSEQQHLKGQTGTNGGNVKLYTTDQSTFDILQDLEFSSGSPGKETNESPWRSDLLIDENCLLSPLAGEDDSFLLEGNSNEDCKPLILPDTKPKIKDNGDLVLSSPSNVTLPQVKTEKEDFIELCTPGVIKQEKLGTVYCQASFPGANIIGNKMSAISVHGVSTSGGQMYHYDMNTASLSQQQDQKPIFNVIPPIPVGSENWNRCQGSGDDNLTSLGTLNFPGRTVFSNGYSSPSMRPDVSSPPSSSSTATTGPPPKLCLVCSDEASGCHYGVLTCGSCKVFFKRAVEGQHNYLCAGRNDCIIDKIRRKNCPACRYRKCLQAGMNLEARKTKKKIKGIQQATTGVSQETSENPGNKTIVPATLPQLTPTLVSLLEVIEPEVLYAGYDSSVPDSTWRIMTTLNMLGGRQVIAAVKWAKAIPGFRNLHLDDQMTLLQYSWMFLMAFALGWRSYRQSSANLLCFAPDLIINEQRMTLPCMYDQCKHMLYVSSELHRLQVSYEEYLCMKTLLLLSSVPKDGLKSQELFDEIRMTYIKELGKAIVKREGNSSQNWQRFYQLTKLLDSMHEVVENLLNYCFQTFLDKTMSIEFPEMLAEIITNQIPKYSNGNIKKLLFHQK
# [2] = qHTS Assay for Lipid Storage Modulators (AID 1519; calls by dose curve; also: % is scaled to controls: 0 for no effect and ±100 for the full control effect); conditions: Drosophila S3 cells, BODIPY lipid droplet/cell ratio, laser cytometry, cells loaded with oleic acid; activity change, negative = inhibition: at 57.5 µM (top of the series) unless noted
# Procedure, shortened: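 Cells seeded at 5,000 per well were treated with compounds over a concentration series and loaded with oleic acid (400 uM, as added). Lipid droplet fluorescence (488 nm excitation, 500-530 nm channel) was read by laser-scanning cytometry and normalized to 20 uM Triacsin C.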
# [3] = Counterscreen qHTS for small molecule stabilizers of the endoplasmic reticulum resident proteome: GLuc-NoTag assay (AID 1508627); conditions: Gaussia luciferase NoTag secretion counterscreen, luminescence, thapsigargin 100 nM for final 4 h; activity change, negative = inhibition: at 76.4 µM (top of the series); also: potency is read from the fitted curve at half-maximal effect;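 as to activity change, negative = inhibition: 0% = thapsigargin alone and -100% = DMSO vehicle control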
# Procedure, shortened: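 Secreted GLuc lacking the SERCaMP modification is measured in SH-SY5Y cells exposed to compound for 19 h and then to thapsigargin (100 nM, 4 h) to deplete ER calcium; hits retested at 11 concentrations, up to 76.6 uM.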
# [4] = Confirmatory qHTS for small molecule stabilizers of the endoplasmic reticulum resident proteome: Secreted ER Calcium Modulated Protein (SERCaMP) assay (AID 1508628); also: nearly all actives have a fitted effect of over 40% in size; also: potency is read from the fitted curve at half-maximal effect
# Procedure, shortened: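 Reporter secretion upon ER calcium depletion (100 nM thapsigargin, 4 h, 37C) is measured as medium luminescence with coelenterazine, after 16 h compound pretreatment of SH-SY5Y-GLuc-SERCaMP cells; primary at three concentrations up to 38.3 uM, follow-up at 11 (up to 76.6 uM).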
# [5] = Primary qHTS for small molecule stabilizers of the endoplasmic reticulum resident proteome: Secreted ER Calcium Modulated Protein (SERCaMP) assay (AID 1508630); conditions: SH-SY5Y GLuc-SERCaMP (Gaussia luciferase released on ER calcium loss) secretion, thapsigargin, luminescence; activity change, negative = inhibition: at 38.4 µM (top of the series) unless noted; also: potency is read from the fitted curve at half-maximal effect
# Procedure, shortened: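 The SH-SY5Y reporter protocol was run at 3 concentrations up to 38.3 uM (primary) or 11 concentrations (follow-up): 16 h compound, 100 nM thapsigargin for 4 h, then extracellular luciferase luminescence.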
# [6] = target: 3',5'-cyclic-AMP phosphodiesterase 4B (Homo sapiens) (UniProt Q07343); test: qHTS Assay for Inhibitors of PDE-IV (AID 607; active = well fitted activation curve with a large enough effect in the main read-out, with a control signal flat, not every such curve was filed as active; inconclusive = small, poorly fitted or top-dose-only effect, or effect the other way, or a change in a side signal; also: potency is read from the fitted curve at half-maximal effect; as to activation (PDE inhibition): % of control where 0% means no effect); conditions: HEK293 ACTOne CNG channel cells, membrane potential fluorescence; activation (PDE inhibition): at 22.9 µM (top of the series)
# UniProt Q07343, sequence (Q07343 whole entry, looked up): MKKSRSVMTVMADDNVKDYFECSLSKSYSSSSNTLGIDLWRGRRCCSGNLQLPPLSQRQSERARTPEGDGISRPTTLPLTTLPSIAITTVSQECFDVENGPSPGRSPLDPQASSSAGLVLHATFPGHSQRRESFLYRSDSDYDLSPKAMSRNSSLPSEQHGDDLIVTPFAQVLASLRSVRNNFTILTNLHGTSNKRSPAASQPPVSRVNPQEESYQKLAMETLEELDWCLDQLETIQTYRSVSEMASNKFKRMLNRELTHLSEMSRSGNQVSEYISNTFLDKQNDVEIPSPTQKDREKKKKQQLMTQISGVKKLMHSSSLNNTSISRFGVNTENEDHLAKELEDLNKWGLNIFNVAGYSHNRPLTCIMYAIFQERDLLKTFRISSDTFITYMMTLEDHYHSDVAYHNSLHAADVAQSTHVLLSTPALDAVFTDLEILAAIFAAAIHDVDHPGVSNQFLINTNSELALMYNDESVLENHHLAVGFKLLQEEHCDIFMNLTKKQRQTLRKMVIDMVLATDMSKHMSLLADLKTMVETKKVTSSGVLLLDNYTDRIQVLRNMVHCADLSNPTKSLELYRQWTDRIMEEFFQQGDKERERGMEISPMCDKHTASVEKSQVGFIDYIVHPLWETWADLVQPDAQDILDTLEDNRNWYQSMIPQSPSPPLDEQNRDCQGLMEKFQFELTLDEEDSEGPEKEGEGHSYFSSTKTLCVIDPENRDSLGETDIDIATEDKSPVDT
# Procedure, shortened: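 Cell-based read-out of cAMP via a modified cyclic nucleotide-gated channel and membrane potential dye (535/590 nm) in HEK293 cells expressing PDE4 endogenously. Compounds tested up to 22.9 uM final; 100 uM RO 20-1724 reference.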
# [7] = NFAT Signaling Pathway (AID 444; active = well fitted curve in either direction with a large enough effect, not every such curve was filed as active; inconclusive = small, poorly fitted or top-dose-only effect, or another doubt;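 also: carbachol stimulus at about its EC50 of 1 µM final; % is scaled to controls: 0 for no effect and ±100 for the full control effect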); conditions: Jurkat NFAT-bla M1, carbachol, beta-lactamase ratio, 5 h; at 7.69 µM (top of the series) unless noted
# Procedure, shortened: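 Jurkat cells carrying an NFAT-driven β-lactamase reporter and co-transfected muscarinic M1 receptor were treated with compound plus carbachol (1 uM final, an EC50 level) for 5 h at 37 °C. CCF4 loading followed for 1 h at RT; 460/530 nm ratio gave %activity.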
# [8] = Cell Viability qHTS for small molecule stabilizers of the endoplasmic reticulum resident proteome (AID 1508629); conditions: cell viability counter-screen, 100 nM thapsigargin for final 4 h;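 also: compound exposure about 46 h in total before the viability read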; also: potency is read from the fitted curve at half-maximal effect
# [9] = target: Cytochrome P450 1A2 (Homo sapiens) (UniProt P05177); test: p450-cyp1a2 (AID 410; calls by dose curve; also: potency is read from the fitted curve at half-maximal effect)
# UniProt P05177, sequence (P05177 whole entry, looked up): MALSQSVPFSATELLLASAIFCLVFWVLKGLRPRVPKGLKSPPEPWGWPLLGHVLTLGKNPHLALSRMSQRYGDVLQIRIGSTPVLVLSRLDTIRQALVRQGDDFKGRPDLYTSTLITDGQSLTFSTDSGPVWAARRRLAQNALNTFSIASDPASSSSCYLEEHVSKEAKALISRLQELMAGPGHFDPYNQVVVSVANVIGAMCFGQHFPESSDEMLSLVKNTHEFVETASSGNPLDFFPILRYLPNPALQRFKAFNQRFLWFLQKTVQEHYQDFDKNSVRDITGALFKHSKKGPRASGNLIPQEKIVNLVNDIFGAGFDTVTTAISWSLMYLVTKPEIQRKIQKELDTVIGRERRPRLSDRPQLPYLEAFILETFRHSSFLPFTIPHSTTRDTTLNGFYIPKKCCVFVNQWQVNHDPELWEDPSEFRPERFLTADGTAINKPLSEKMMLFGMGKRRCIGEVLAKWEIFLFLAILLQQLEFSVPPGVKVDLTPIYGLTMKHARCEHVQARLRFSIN
# Procedure, shortened: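 Luminescent demethylation readout: Luciferin-ME (100uM, equal to Km) turned over by 20nM CYP1A2 for 60 min at room temperature after NADPH regeneration addition, following 10 min compound preincubation. Normalization used 57 uM furafylline as full inhibition.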
# [10] = target: Mitogen-activated protein kinase 10 (Mus musculus) (UniProt Q61831); test: JNK3 AlphaScreen Assay (AID 530; active = well fitted curve in either direction with a large enough effect, not every such curve was filed as active; inconclusive = small, poorly fitted or top-dose-only effect, or another doubt;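 also: kinase came from lysate of stimulated human HepG2 cells; signal reports phosphorylation of biotinylated GST-cJun 1-79 at Ser73 with 10 µM ATP; % is scaled to controls: 0 for no effect and ±100 for the full control effect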); conditions: JNK3 lysate, c-Jun phosphorylation; activity change, negative = inhibition: at 57.1 µM (top of the series)
# Procedure, shortened: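 Phosphorylation of biotinylated GST-cJun(1-79) at Ser73 is measured by AlphaScreen proximity luminescence. Enzyme is JNK3 in HepG2 lysates activated with interleukin-1beta and tumor necrosis factor alpha; ATP is 10 uM final.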
# [11] = target: ATP-dependent 6-phosphofructokinase (Trypanosoma brucei brucei) (UniProt O15648); test: qHTS Validation Assay to Find Inhibitors of T. brucei phosphofructokinase (AID 485368)
# UniProt O15648, sequence (O15648 whole entry, looked up): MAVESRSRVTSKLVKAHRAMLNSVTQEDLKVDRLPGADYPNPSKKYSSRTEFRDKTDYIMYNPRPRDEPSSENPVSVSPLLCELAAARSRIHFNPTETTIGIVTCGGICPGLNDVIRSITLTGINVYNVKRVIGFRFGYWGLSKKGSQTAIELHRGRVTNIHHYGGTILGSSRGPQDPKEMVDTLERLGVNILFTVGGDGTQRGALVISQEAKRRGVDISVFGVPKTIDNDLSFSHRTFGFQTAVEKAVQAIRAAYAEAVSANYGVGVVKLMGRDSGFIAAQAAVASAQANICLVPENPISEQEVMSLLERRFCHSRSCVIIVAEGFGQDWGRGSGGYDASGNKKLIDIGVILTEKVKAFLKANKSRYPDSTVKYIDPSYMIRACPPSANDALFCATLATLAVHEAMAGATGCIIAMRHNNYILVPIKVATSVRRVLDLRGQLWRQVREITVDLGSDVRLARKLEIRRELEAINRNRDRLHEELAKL
# Procedure, shortened: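 ADP-Glo luminescence, two-step: residual ATP depleted, then ADP converted to ATP for luciferase. Enzyme 1.25 nM, F6P 0.5 mM, ATP 0.1 mM, pH 8.0 TEA buffer, 45 min RT. Curves fitted and classed by quality and efficacy.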
# [12] = target: Ubiquitin carboxyl-terminal hydrolase 1 (Homo sapiens) (UniProt O94782); test: Inhibitors of USP1/UAF1: Pilot qHTS (AID 504865);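 also: rhodamine fluorescence freed from ubiquitin-rhodamine substrate followed over time; potency is read from the fitted curve at half-maximal effect; nearly all actives have a fitted effect of over 35% in size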
# UniProt O94782, sequence (O94782 whole entry, looked up): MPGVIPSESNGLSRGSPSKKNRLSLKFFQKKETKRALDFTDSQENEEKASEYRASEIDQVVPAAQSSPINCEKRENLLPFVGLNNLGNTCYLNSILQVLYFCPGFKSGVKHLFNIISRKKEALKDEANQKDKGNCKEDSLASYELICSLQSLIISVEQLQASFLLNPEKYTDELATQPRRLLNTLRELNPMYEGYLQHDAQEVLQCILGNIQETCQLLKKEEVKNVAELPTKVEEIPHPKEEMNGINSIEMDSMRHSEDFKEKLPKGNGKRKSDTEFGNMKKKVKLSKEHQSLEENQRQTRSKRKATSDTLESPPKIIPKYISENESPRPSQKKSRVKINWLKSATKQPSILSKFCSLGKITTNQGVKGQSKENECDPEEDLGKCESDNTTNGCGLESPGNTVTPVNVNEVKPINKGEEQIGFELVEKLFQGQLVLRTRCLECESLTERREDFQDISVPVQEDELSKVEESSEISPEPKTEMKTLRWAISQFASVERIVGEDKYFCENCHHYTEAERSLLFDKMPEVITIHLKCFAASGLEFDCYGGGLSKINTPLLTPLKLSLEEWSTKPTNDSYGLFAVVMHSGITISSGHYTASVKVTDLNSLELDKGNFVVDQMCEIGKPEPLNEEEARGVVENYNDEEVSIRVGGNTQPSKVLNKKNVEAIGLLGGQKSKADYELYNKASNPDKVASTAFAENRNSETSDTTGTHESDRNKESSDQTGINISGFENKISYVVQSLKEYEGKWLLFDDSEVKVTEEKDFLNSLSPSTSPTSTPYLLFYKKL
# Procedure, shortened: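 USP1/UAF1 complex at 1 nM preincubated 15 min at room temperature with compound, then Ub-Rho substrate added at 150 nM final. Fluorescence (480/540 nm) read kinetically in 50 mM HEPES pH 7.8, 0.5 mM EDTA, 1 mM TCEP, 0.1 mg/ml BSA, 0.01% Tween-20.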
# [13] = qHTS for Inhibitors of ATXN expression: Validation of Cytotoxic Assay (AID 588349); also: potency is read from the fitted curve at half-maximal effect
# Procedure, shortened: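 Cytotoxicity counter-screen: ATP-based luminescent viability (CellTiter Glo) after 72 hr exposure of HEK293 cells to a compound titration at 37 degrees C.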
# [14] = target: Glutaminase kidney isoform, mitochondrial (Homo sapiens) (UniProt O94925); test: qHTS for Inhibitors of Glutaminase (GLS): LOPAC Validation (AID 624146); also: potency is read from the fitted curve at half-maximal effect; nearly all actives have a fitted effect of over 60% in size
# UniProt O94925, sequence (O94925 whole entry, looked up, canonical isoform): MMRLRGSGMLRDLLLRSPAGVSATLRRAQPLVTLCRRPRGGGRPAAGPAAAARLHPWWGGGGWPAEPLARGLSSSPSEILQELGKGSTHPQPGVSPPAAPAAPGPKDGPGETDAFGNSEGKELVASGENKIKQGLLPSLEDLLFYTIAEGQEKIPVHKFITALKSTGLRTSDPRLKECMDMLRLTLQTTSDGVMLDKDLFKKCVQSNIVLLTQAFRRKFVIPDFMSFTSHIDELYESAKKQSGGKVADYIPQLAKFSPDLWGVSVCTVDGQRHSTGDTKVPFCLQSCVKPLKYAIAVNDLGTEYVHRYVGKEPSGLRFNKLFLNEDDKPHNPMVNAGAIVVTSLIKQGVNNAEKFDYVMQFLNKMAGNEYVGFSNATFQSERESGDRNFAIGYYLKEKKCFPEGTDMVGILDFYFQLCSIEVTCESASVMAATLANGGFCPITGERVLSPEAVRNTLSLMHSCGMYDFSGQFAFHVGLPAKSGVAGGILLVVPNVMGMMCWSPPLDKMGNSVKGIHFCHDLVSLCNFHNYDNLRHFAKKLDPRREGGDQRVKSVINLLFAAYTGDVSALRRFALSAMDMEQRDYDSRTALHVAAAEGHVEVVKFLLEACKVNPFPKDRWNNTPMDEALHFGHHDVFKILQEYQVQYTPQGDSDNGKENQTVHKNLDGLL
# Procedure, shortened: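 Coupled fluorescence readout: glutamate oxidase/HRP/Amplex Red detect glutamate formed by hKGA from L-glutamine (1 mM solution added). Buffer 45 mM KH2PO4 pH 8.2, 0.02% Tween-20; reads at t0 and 30 min RT.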
# Papain (Carica papaya) = Papain (Carica papaya) (UniProt P00784); test: Primary qHTS assay for inhibitors of the protease papain (AID 1645873)
# [15] = target: Dual specificity protein kinase CLK4 (Homo sapiens) (UniProt Q9HAZ1); test: qHTS Assay for Inhibitors of CDC-like Kinase 4 (Kinase-Glo Assay) (AID 1770); also: potency is read from the fitted curve at half-maximal effect; nearly all actives have a fitted effect of over 65% in size
# UniProt Q9HAZ1, sequence (Q9HAZ1 whole entry, looked up): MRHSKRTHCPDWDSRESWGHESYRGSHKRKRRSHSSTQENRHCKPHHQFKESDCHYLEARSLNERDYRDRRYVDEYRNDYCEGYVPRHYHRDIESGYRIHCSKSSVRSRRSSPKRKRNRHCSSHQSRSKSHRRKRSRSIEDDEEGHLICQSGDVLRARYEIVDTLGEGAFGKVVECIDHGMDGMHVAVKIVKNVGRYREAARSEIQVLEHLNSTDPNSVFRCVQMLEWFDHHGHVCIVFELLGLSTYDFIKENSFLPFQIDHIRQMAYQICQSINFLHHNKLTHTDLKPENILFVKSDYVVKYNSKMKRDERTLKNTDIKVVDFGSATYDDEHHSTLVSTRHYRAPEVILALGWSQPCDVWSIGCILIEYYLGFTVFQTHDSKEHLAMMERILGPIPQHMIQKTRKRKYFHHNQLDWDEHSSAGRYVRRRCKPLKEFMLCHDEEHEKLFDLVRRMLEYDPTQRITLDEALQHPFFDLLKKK
# Procedure, shortened: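 25 nM Clk4 with 100 uM RS repeat peptide and 1 uM ATP (final) in Tris pH7.5, 10 mM MgCl2, 4.5 h at room temperature. Remaining ATP measured by Kinase-Glo luciferase luminescence.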
# [16] = AP1 Signaling Pathway (AID 357; active = well fitted curve in either direction with a large enough effect, not every such curve was filed as active; inconclusive = small, poorly fitted or top-dose-only effect, or another doubt;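 also: ME-180 reporter cells stimulated with EGF at its EC50 level; top concentration of the series differs between compounds; % is scaled to controls: 0 for no effect and ±100 for the full control effect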); conditions: ME-180 AP-1-bla reporter, EGF-induced, beta-lactamase ratio, 5 h; at 7.69 µM (top of the series) unless noted
# Procedure, shortened: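 Read-out was the 460nm/530nm emission ratio (excitation 405nm) after CCF4 loading for 2.5 hours at room temperature. Cells carried an AP-1-driven beta-lactamase reporter, were stimulated with EC50 EGF plus compound for 5 hours, and AC50 values came from titrations.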
# [17] = Stat Signaling Pathway (AID 446; active = well fitted curve in either direction with a large enough effect, not every such curve was filed as active; inconclusive = small, poorly fitted or top-dose-only effect, or another doubt); conditions: ME-180 (cervical carcinoma) SIE beta-lactamase reporter, IL-6 stimulated, 5 h; at 7.69 µM (top of the series) unless noted
# Procedure, shortened: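 FRET read-out (405 nm excitation, 460/530 nm emission) of a beta-lactamase reporter under a STAT-inducible element in ME-180 cervical carcinoma cells. Cells with compound receive 40 pM IL-6 for 5 h. Values are normalised to AC90 stimulation and AC90 JAK-inhibitor controls.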
# [18] = target: Cytochrome P450 2C9 (Homo sapiens) (UniProt P11712); test: qHTS Assay for Inhibitors and Substrates of Cytochrome P450 2C9 (AID 883); also: potency is read from the fitted curve at half-maximal effect; nearly all actives have a fitted effect of over 60% in size
# UniProt P11712, sequence (P11712 whole entry, looked up): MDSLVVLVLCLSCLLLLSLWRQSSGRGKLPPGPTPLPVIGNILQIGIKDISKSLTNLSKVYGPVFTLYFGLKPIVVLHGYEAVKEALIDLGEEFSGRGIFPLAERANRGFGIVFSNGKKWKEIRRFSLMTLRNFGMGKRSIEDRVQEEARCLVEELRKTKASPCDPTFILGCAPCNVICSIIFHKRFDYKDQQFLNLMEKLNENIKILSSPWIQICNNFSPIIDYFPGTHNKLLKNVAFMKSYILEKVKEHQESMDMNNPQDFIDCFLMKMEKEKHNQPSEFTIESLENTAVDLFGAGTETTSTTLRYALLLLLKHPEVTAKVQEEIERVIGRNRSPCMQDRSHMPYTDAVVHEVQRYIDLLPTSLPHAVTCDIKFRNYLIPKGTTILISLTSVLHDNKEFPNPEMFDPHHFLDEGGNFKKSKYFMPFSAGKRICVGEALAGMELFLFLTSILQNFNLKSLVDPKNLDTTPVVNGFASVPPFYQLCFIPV
# Procedure, shortened: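 CYP2C9 deoxyluciferin hydroxylation, 37C, 60 min with NADPH regeneration; 10nM enzyme, 100uM Luciferin-H (KM). Glo detection reagent stopped reaction; luminescence normalized to sulphaphenazole (57uM) full inhibition.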
# Tags tell the direction and shape of the fitted curve.
structure (smiles),measurement,setting,value
c1ccc2c(N3CCNCC3)nc(-c3ccc4c(c3)OCO4)nc2c1,Potency,[1],inconclusive: 38.9 µM [single point]
same,"activity change, negative = inhibition",[2],inconclusive: 8.52%
same,Potency,[3],"inconclusive: 14.1 µM [inhibitor, partial curve, poor fit]"
same,Potency,[4],active: 20 µM
same,Potency,[5],"inconclusive: 10 µM [inhibitor, partial curve, poor fit]"
O=c1c(CCc2ccccc2)nc2cnc(N3CCNCC3)nc2n1C1CC1,Potency,[6],"inconclusive: 2.51 µM [rising, partial curve]"
same,Potency,[3],inactive
same,Potency,[4],"inconclusive: 44.7 µM [inhibitor, partial curve]"
same,Potency,[5],"inconclusive: 7.94 µM [inhibitor, partial curve, poor fit]"
O=C(O)/C=C/C(=O)Nc1ccc(OC(F)(F)Cl)cc1,Potency,[4],inactive
Cc1ccccc1-c1cncnc1N1CCN(C)CC1,"activity change, negative = inhibition",[7],inconclusive: -35.4% [inhibitor]
same,Potency,[3],"inconclusive: 1 µM [inhibitor, full curve, poor fit]"
same,Potency,[4],"inconclusive: 44.7 µM [inhibitor, partial curve]"
same,Potency,[5],"inconclusive: 10 µM [inhibitor, partial curve, poor fit]"
CCC(C)C(N)C(=O)NC(CC(N)=O)C(=O)NC(CC(C)C)C(=O)NC(CCCCN)C(=O)NC(C)C(=O)NC(CC(C)C)C(=O)NC(C)C(=O)NC(C)C(=O)NC(CC(C)C)C(=O)NC(C)C(=O)NC(CCCCN)C(=O)NC(CCCCN)C(=O)NC(C(=O)NC(CC(C)C)C(N)=O)C(C)CC (stereo unspecified),Potency,[4],inactive
COc1cc(CN2CCN(C(=O)c3ccc(-c4ccccc4)cc3)CC2)cc(OC)c1OC,Potency,[4],inactive
same,Potency,[8],"inconclusive: 2.98 µM [cytotoxic, partial curve, poor fit]"
COc1cccc(CN2CCN(C(=O)c3ccc(-c4ccccc4)cc3)CC2)c1,Potency,[4],inactive
CN1CCc2cc(Cl)c(O)cc2[C@@H](c2ccccc2)C1,Potency,[9],inconclusive: 39.8 µM [decreasing]
same,Potency,[10],inactive
same,Potency,[6],"inconclusive: 9.51 µM [rising, partial curve]"
same,Potency,[11],inactive
same,Potency,[12],"inconclusive: 20 µM [inhibitor, partial curve, poor fit]"
same,Potency,[13],"inconclusive: 31.6 µM [cytotoxic, single point]"
same,Potency,[14],"inconclusive: 3.55 µM [inhibitor, full curve]"
same,Potency,[3],"inconclusive: 3.98 µM [inhibitor, full curve]"
same,Potency,[4],inactive
same,Potency,[8],"inconclusive: 0.1 µM [rising, full curve, poor fit]"
same,Potency,[5],"inconclusive: 31.6 µM [inhibitor, partial curve, poor fit]"
same,Potency,Papain (Carica papaya),"inconclusive: 10 µM [inhibitor, partial curve, poor fit]"
Cc1noc(C)c1-c1nc(N2CCNCC2)c2ccccc2n1,Potency,[12],"inconclusive: 50.1 µM [inhibitor, partial curve, poor fit]"
same,Potency,[3],inactive
same,Potency,[4],active: 14.1 µM
same,Potency,[5],"inconclusive: 10 µM [inhibitor, partial curve, poor fit]"
COc1cccc(CN2CCN(C(=O)c3ccc(-c4ccccc4)cc3)CC2)c1OC,Potency,[4],"inconclusive: 43.2 µM [inhibitor, single point]"
same,max response,[8],inactive: 10.7%
COc1cccc(Nc2ncc3nc(C)c(=O)n(C[C@H]4CCCO4)c3n2)c1,Potency,[6],inactive
same,Potency,[15],active: 12.6 µM
same,Potency,[3],"inconclusive: 56.2 µM [inhibitor, partial curve, poor fit]"
same,Potency,[4],"inconclusive: 39.8 µM [inhibitor, partial curve, poor fit]"
same,Potency,[8],"inconclusive: 12.6 µM [cytotoxic, partial curve, poor fit]"
same,Potency,[5],"inconclusive: 10 µM [inhibitor, partial curve, poor fit]"
OC[C@H]1NC[C@@H](O)[C@@H](O)[C@@H]1O,Potency,[4],inactive
same,max response,[8],inactive: 8.42%
N#CCCn1c(=O)c(CCc2ccccc2)nc2cnc(Oc3cccc(Cl)c3)nc21,"activity change, negative = inhibition",[16],inconclusive: -43.8% [inhibitor]
same,"activity change, negative = inhibition",[7],inactive: -8.5%
same,"activity, negative = inhibition",[17],inconclusive: -40% [inhibitor]
same,Potency,[18],active: 3.16 µM
same,Potency,[3],"inconclusive: 3.55 µM [inhibitor, full curve]"
same,Potency,[4],"inconclusive: 39.8 µM [inhibitor, partial curve]"
same,Potency,[5],"inconclusive: 31.6 µM [inhibitor, partial curve, poor fit]"
